The results in this text go back to article PMC5700166.

This is a selection; strong and weak results do not stand in their true shares. The list includes weakly bound sequences.

The experiment has as its target T1, GST-Nv-NF-kB (Cys allele) (UniProt E5G601).
T1 sequence: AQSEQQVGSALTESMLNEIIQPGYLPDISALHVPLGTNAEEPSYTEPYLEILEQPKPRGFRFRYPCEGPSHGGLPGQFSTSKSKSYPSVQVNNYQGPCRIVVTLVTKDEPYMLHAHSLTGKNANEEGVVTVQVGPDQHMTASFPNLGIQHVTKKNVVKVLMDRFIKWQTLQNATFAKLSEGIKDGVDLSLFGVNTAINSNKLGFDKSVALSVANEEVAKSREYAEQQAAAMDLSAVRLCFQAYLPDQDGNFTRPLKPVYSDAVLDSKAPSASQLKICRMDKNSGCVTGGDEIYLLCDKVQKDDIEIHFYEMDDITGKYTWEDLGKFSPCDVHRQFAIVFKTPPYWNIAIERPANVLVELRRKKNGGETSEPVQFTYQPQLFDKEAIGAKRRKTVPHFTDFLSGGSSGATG
The experiment is described as follows: protein-binding microarray (PBM). The note with it: PBM: ~300 nM protein, 6 mM HEPES pH 7.8, 80 mM KCl, 0.5 mM EDTA, 0.5 mM EGTA, 6% glycerol, 35 ng/ul poly-dIdC, 1% milk, 1 h, room temperature; Ap Aiptasia and Nv Nematostella (sea anemones) / Co Capsaspora / Aq Amphimedon (sponge) / Dm Drosophila / Hu human; RHD is the Rel homology domain; high values mean tight binding; most listed sequences are background and not binding sites; double strand, one strand shown.
With “CCGATTAACATCAGGAAATTCACTGATGTTAATCGGGTCTTGATTCGCTTGACGCTGCTG”, the binding signal is 0.109 z-score.

For “CCGATTAACATCAACACCGGCTTTGATGTTAATCGGGTCTTGATTCGCTTGACGCTGCTG”, the binding signal is -0.182 z-score.

With “CCGATTAACATCAGGGAGATACCTGATGTTAATCGGGTCTTGATTCGCTTGACGCTGCTG”, the binding signal is 4.81 z-score. In the case of “CCGATTAACATCATGATATCCGGTGATGTTAATCGGGTCTTGATTCGCTTGACGCTGCTG” it was 0.242 z-score; in that of “CCGATTAACATCATTTCTTACGGTGATGTTAATCGGGTCTTGATTCGCTTGACGCTGCTG”, 0.378 z-score. In the case of “CCGATTAACATCACGTTCTTTCCTGATGTTAATCGGGTCTTGATTCGCTTGACGCTGCTG” it was 0.717 z-score. As for “CCGATTAACATCACCGCAGCATGTGATGTTAATCGGGTCTTGATTCGCTTGACGCTGCTG”, the binding signal is 0.311 z-score. The result for “CCGATTAACATCAAGGATATTCCTGATGTTAATCGGGTCTTGATTCGCTTGACGCTGCTG” reads -0.0182 z-score; that for “CCGATTAACATCAGAAAGTTTCCTGATGTTAATCGGGTCTTGATTCGCTTGACGCTGCTG”, 0.528 z-score; that for “CCGATTAACATCAAAAATTCCATTGATGTTAATCGGGTCTTGATTCGCTTGACGCTGCTG”, 0.429 z-score.

Regarding “CCGATTAACATCAACAACGGTTCTGATGTTAATCGGGTCTTGATTCGCTTGACGCTGCTG”, the binding signal was -0.837 z-score. The result for “CCGATTAACATCACGAAAATTCCTGATGTTAATCGGGTCTTGATTCGCTTGACGCTGCTG” reads -0.24 z-score; that for “CCGATTAACATCACGTACTTTCCTGATGTTAATCGGGTCTTGATTCGCTTGACGCTGCTG”, 0.0803 z-score; that for “CCGATTAACATCAAAAAACCGTTTGATGTTAATCGGGTCTTGATTCGCTTGACGCTGCTG”, 0.233 z-score. The result for “CCGATTAACATCAGTGAATTCCATGATGTTAATCGGGTCTTGATTCGCTTGACGCTGCTG” reads -0.133 z-score; that for “CCGATTAACATCATCCCTCTGAATGATGTTAATCGGGTCTTGATTCGCTTGACGCTGCTG”, 0.45 z-score; that for “CCGATTAACATCAATAAATGTACTGATGTTAATCGGGTCTTGATTCGCTTGACGCTGCTG”, -0.0808 z-score. In the case of “CCGATTAACATCAGGAGAGTCCATGATGTTAATCGGGTCTTGATTCGCTTGACGCTGCTG” it was -0.317 z-score; in that of “CCGATTAACATCATGGTGCTTAATGATGTTAATCGGGTCTTGATTCGCTTGACGCTGCTG”, 0.302 z-score. For “CCGATTAACATCAAATATTTTCCTGATGTTAATCGGGTCTTGATTCGCTTGACGCTGCTG”, the binding signal is -0.646 z-score.

Take “CCGATTAACATCAGGAAAATCACTGATGTTAATCGGGTCTTGATTCGCTTGACGCTGCTG”: the binding signal is -0.689 z-score. In the case of “CCGATTAACATCAAAAAATTTCCTGATGTTAATCGGGTCTTGATTCGCTTGACGCTGCTG” it was 0.847 z-score; in that of “CCGATTAACATCAGGGACTGCCCTGATGTTAATCGGGTCTTGATTCGCTTGACGCTGCTG”, 4.95 z-score.

In the case of “CCGATTAACATCACTGAACGCGTTGATGTTAATCGGGTCTTGATTCGCTTGACGCTGCTG”, the binding signal was -0.294 z-score. In the case of “CCGATTAACATCATGTTTAGTTTTGATGTTAATCGGGTCTTGATTCGCTTGACGCTGCTG” it was 0.241 z-score; in that of “CCGATTAACATCACGGAAAATACTGATGTTAATCGGGTCTTGATTCGCTTGACGCTGCTG”, -0.0428 z-score.

As for “CCGATTAACATCACAGAAAATCCTGATGTTAATCGGGTCTTGATTCGCTTGACGCTGCTG”, the binding signal was -0.511 z-score. The result for “CCGATTAACATCAGGAATTGCCATGATGTTAATCGGGTCTTGATTCGCTTGACGCTGCTG” reads -0.0328 z-score; that for “CCGATTAACATCAGGAAAAATCATGATGTTAATCGGGTCTTGATTCGCTTGACGCTGCTG”, 0.0408 z-score; that for “CCGATTAACATCATTACAGGCCGTGATGTTAATCGGGTCTTGATTCGCTTGACGCTGCTG”, -0.539 z-score.

“CCGATTAACATCAGCTGTTAGCCTGATGTTAATCGGGTCTTGATTCGCTTGACGCTGCTG”: the binding signal is -0.0711 z-score. In the case of “CCGATTAACATCAGAGTAATTCCTGATGTTAATCGGGTCTTGATTCGCTTGACGCTGCTG” it was 0.169 z-score; in that of “CCGATTAACATCAATAGCTAGTATGATGTTAATCGGGTCTTGATTCGCTTGACGCTGCTG”, 0.0025 z-score.

In the case of “CCGATTAACATCAAAAACTACCCTGATGTTAATCGGGTCTTGATTCGCTTGACGCTGCTG”, the binding signal worked out at 3.21 z-score. In the case of “CCGATTAACATCAAAGGATTTCCTGATGTTAATCGGGTCTTGATTCGCTTGACGCTGCTG” it was 0.115 z-score; in that of “CCGATTAACATCAAGTACAACGGTGATGTTAATCGGGTCTTGATTCGCTTGACGCTGCTG”, 0.331 z-score. The result for “CCGATTAACATCAAGAATTCCCCTGATGTTAATCGGGTCTTGATTCGCTTGACGCTGCTG” reads 11.7 z-score. “CCGATTAACATCACAAATTTTCCTGATGTTAATCGGGTCTTGATTCGCTTGACGCTGCTG” returned a binding signal of 0.174 z-score. The result for “CCGATTAACATCAGGGAACTCCCTGATGTTAATCGGGTCTTGATTCGCTTGACGCTGCTG” reads 10.6 z-score.

In turn, “CCGATTAACATCAGGGACGTCCCTGATGTTAATCGGGTCTTGATTCGCTTGACGCTGCTG” yielded a binding signal of 7.13 z-score.
